Test results as given in PubChem BioAssay AID1463 (National Center for Advancing Translational Sciences (NCATS), 2008).
The campaign covered roughly 280,000 compounds. About 2,600 (0.93%) were called active. Inconclusive results (about 8%) are left out. Calls follow the shape of the dose curve; as a rule, active = well fitted curve in the direction sought with a large enough effect; inconclusive = small, poorly fitted or top-dose-only effect; inactive = flat fitted curve, though single readings scatter. The entries are a selection whose mix differs from that of the whole data set.

Assay: Counterscreen qHTS for Inhibitors of Tau Fibril Formation, Fluorescence Polarization; also: nearly all actives have a fitted effect of over 55% in size
Details: tau K18 P301L Alexa594 fluorescence, heparin fibrillization; series mostly up to 57.7 µM; activity change, negative = decrease: at the top concentration
How it was run: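 Human tau K18 P301L (15 uM unlabeled, 0.24 uM Alexa 594-labeled) in 100 mM sodium acetate pH 7 with 20 uM heparin, 6 hr at 37 C. ThT 30 uM added, 1 hr ambient; Alexa 594 FP and total fluorescence read at 555/632 nm.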
% is scaled to controls: 0 for no effect and ±100 for the full control effect; potency is read from the fitted curve at half-maximal effect; tags tell the direction and shape of the fitted curve or compound fluorescence and quenching.

Row | Structure (SMILES) | activity change, negative = decrease | Potency
1 | CN1C=CC=C/C1=C1/SC(=S)N(Cc2ccccc2)C1=O | inactive: -2.32% | –
2 | CCC(NC(C)C)C(O)c1ccc(O)c(O)c1 (configuration not stated) | inactive: -30.6% | –
3 | c1ccc(Nc2cccc(Nc3ccccc3)c2)cc1 | – | active: 11.2 µM [quencher]
4 | O=[N+]([O-])c1ccc(N=Nc2ccc(O)cc2O)cc1 | – | active: 14.1 µM [quencher]
5 | CCC1=C(OC(=O)N(CC)CC)N2C(=O)OC(=NCCc3c[nH]c4ccccc34)[C@]2(Cc2ccccc2)[C@H]2C1=CC[C@H]1C(=O)N(CC)C(=O)[C@H]12 | inactive: -12.5% | –
6 | COc1ccccc1[C@@H]1C(c2cccc(C)c2)=NN(c2ccccc2)[C@H]1C(=O)N1CCOC1=O | inactive: -2.94% | –
7 | CCCN(C(=O)C(=O)Nc1ccc2nc3n(c(=O)c2c1)CCCCC3)c1ccc(OCC)cc1 | inactive: -7.04% | –
8 | O=C(O)c1ccccc1Nc1ccccc1 | – | inactive
9 | O=C(Nc1ccc(F)cc1)N1CCN(c2ccc3nnc(-c4ccc(F)cc4)n3n2)CC1 | inactive: -25.7% | –
10 | CCC(=O)O[C@@]1(C(=O)CCl)C(C)CC2C3CCC4=CC(=O)C=C[C@@]4(C)[C@]3(F)C(O)C[C@]21C (some centres not stated) | inactive: -26.7% | –
11 | CC(=O)c1ccc(NC(=O)c2ccc(NC(=O)CCS(=O)(=O)c3cccs3)cc2)cc1 | inactive: -29.4% | –
12 | COc1ccc(NC(=O)C(c2ccc(C)cc2)N(C)C(=O)Cc2cccs2)cc1 (configuration not stated) | inactive: -5.67% | –
13 | Oc1ccccc1-c1nc(/C=C/c2ccccc2)nn1-c1ccccc1 | inactive: 3.47% | –
14 | COc1ccccc1N1CCN(CC(O)COc2cccc3ccccc23)CC1 (configuration not stated) | – | inactive
15 | CO[C@@]1(NC(=O)Cc2cccs2)C(=O)N2C(C(=O)O)=C(COC(N)=O)CS[C@@H]21 | inactive: -15.5% | –
16 | COc1ccc(COc2cc(-c3cccc(OC)c3)nc3ccc(NC(=O)c4ccccc4)cc23)cc1 | inactive: -21.2% | –
17 | COc1cc(-c2ccc(N=Nc3ccc4c(S(=O)(=O)O)cc(S(=O)(=O)O)c(N)c4c3O)c(OC)c2)ccc1N=Nc1ccc2c(S(=O)(=O)O)cc(S(=O)(=O)O)c(N)c2c1O | – | active: 1 µM [quencher]
18 | COc1ccc2c(c1)C(=O)[C@@H](OC(=O)Nc1ccc(C)c(Br)c1)[C@H](c1ccc(OC)c(Br)c1)O2 | inactive: -14.4% | –
19 | Cc1ccc(-c2cc(C(=O)NCc3cnn(C)c3)c3cc(Br)ccc3n2)cc1 | inactive: -19.8% | –
20 | N#CC(=C=[N-])c1nc2ccccc2nc1-[n+]1cccc(NC(=O)c2ccccc2)c1 | inactive: -27.2% | –
21 | CCOC(=O)/C(C#N)=C/c1c(OCC)n(CC)c2ccccc12 | inactive: -25.5% | –

Row | Structure (SMILES) | activity change, negative = decrease | Potency
22 | COc1ccc(C2=CC3=C(Br)C(=O)C(C)(O)C(=O)C3=CO2)cc1 (configuration not stated) | inactive: -7.24% | –
23 | COc1ccc(C(=O)Nc2ccc3nc(N4CCC(C)CC4)cc(C)c3c2)cc1 | – | active: 5.01 µM [quencher]
24 | COc1cccc(-c2nc(SCC(=O)Nc3ccc4c(c3)OCCO4)c(-c3ccccc3)[nH]2)c1 | – | active: 5.62 µM [quencher]
25 | COc1ccc2c(c1)O[C@@H](c1cccc(C(F)(F)F)c1)[C@H](OC(=O)Nc1ccc(OC(F)F)cc1)C2=O | inactive: -20.2% | –
26 | COc1ccccc1OCC(=O)NNc1c2ccccc2nc2ccccc12 | – | active: 15.8 µM [quencher]
27 | C[C@@H](NC(=O)/C(C#N)=C/c1ccc(O)c(O)c1)c1ccccc1 | inactive: -18.3% | –
28 | O=C1Nc2ccc(Cl)cc2C(C#CC2CC2)(C(F)(F)F)O1 (configuration not stated) | inactive: -25.2% | –
29 | Cc1c(N=Cc2c(O)n(Cc3ccco3)c(=O)c3ccccc23)c(=O)n(-c2ccccc2)n1C | inactive: -27.7% | –
30 | Cc1cccc(CSc2ccc(-c3cccs3)nn2)c1 | inactive: -27% | –
31 | O=C(NCCc1c[nH]c2ccccc12)[C@@H]1C[C@H]1[C@@H](NP(=O)(c1ccccc1)c1ccccc1)c1ccccc1 | inactive: 3.7% | –
32 | COc1ccc(NC(=S)N(CCc2c(C)[nH]c3ccccc23)Cc2ccco2)cc1 | – | active: 14.1 µM [quencher]
33 | CCN(CCCNC(=O)c1cc2cc3cc(OC)ccc3nc2s1)c1cccc(C)c1 | – | active: 3.98 µM [quencher]
34 | Cc1ccc(-c2[nH]c(-c3ccccc3)nc2SCC(=O)NCC2CCCO2)cc1 (configuration not stated) | inactive: -8.55% | –
35 | C[C@H]1CCC[C@@]2(O[C@@H](CCO)C[C@@H](O)[C@@H]2O)O1 | inactive: -0.466% | –
36 | Cc1ccc(NC(=O)CCNS(=O)(=O)c2cccc3nonc23)cc1Cl | inactive: -25.1% | –
37 | CCOc1ccc(NC(=O)CC2C(=O)N(c3ccccc3)C(=O)N2CCc2cccs2)cc1 (configuration not stated) | inactive: -26.3% | –
38 | Nc1ccccc1C#Cc1ccccc1 | inactive: -27.1% | –
39 | CCCCC1=CC2=CC(=O)C(C)(OC(=O)CCc3ccccc3)C(=O)C2=CO1 (configuration not stated) | inactive: -8.14% | –
40 | CC(C)NC[C@H](O)c1ccc(O)c(O)c1 | – | inactive
41 | O=C1c2cccc3cccc(c23)C(=O)N1CC1CCN(CC(O)COc2ccc3ccccc3c2)CC1 (configuration not stated) | – | active: 15.8 µM [quencher]
42 | CC[C@@]1(O)CC2CN(CCc3c([nH]c4ccccc34)[C@](C(=O)OC)(c3cc4c(cc3OC)N(C)C3[C@@](O)(C(=O)OC)C(OC(C)=O)[C@]5(CC)C=CCN6CC[C@@]43C65)C2)C1 (some centres not stated) | inactive: -21% | –
